Laboratory results as given in patent EP0678100B1, “SYNTHETIC AMPHIPATHIC PEPTIDES WITH ANTIMICROBIAL ACTIVITY” (PIONEER HI-BRED INTERNATIONAL, INC., priority 1993, dated 1998).
Read-outs that look alike come from different tables or passages of the source. Not every detail of the peptide structures is certain; ends, links or a residue may be inferred. Residues, ends and D or L forms follow the SMILES beside them. No end group written: not given here.

What was measured:
[1] = test system: F. graminearum
[2] = test system: A. flavus
[3] = test system: F. moniliforme
[4] = F. graminearum, Minimum Complete Inhibitory Concentration, achieving a score of 3 or greater

Question: What does the source list for `CC[C@H](C)[C@H](NC(=O)[C@H](C)NC(=O)[C@H](CCCNC(=N)N)NC(=O)[C@H](Cc1ccc(O)cc1)NC(=O)[C@@H](NC(=O)[C@H](CCCNC(=N)N)NC(=O)[C@@H](N)CCCNC(=N)N)[C@@H](C)CC)C(=O)N[C@@H](CCCNC(=N)N)C(=O)N[C@@H](Cc1c[nH]cn1)C(=O)N[C@H](C(=O)N1CCC[C@H]1C(=O)N[C@@H](CCCNC(=N)N)C(=O)N[C@@H](CCCNC(=N)N)C(=O)N[C@H](C(=O)N[C@@H](CCCNC(=N)N)C(=O)NCC(=O)N[C@@H](Cc1c[nH]c2ccccc12)C(=O)N[C@@H](CC(C)C)C(=O)N[C@@H](CCCNC(=N)N)C(=O)N[C@@H](CCCNC(=N)N)C(=O)N[C@H](C(=O)NCC(=O)N[C@@H](CCCNC(=N)N)C(=O)N[C@@H](CCCNC(=N)N)C(=O)N[C@H](C(=O)N[C@@H](CCC(=O)O)C(=O)N[C@@H](CCCNC(=N)N)C(=O)N[C@H](C(=O)NCC(=O)N[C@@H](CCC(N)=O)C(=O)N[C@@H](Cc1c[nH]cn1)C(=O)O)C(C)C)[C@@H](C)CC)[C@@H](C)CC)[C@@H](C)CC)[C@@H](C)CC` [Peptide 9] (H-RRIYRAIRHIPRRIRGWLRRIGRRIERVGQH-OH)?
Answer: MCIC [1, 4]: 20 µg/mL; MCIC [2]: 80 µg/mL; MCIC [3]: 15 µg/mL

Question: `CC[C@H](C)[C@H](NC(=O)CNC(=O)[C@@H](NC(=O)[C@@H](NC(=O)[C@@H](NC(=O)CNC(=O)[C@@H]1CCCN1C(=O)CNC(=O)[C@H](C)NC(=O)[C@@H](NC(=O)[C@H](C)NC(=O)[C@H](CCCNC(=N)N)NC(=O)[C@H](CCC(N)=O)NC(=O)[C@H](CC(C)C)NC(=O)[C@H](C)NC(=O)[C@H](CCCNC(=N)N)NC(=O)[C@@H](NC(=O)[C@H](CCCCN)NC(=O)[C@H](CCCNC(=N)N)NC(=O)[C@H](CCCNC(=N)N)NC(=O)[C@H](CC(C)C)NC(=O)[C@H](Cc1c[nH]c2ccccc12)NC(=O)[C@H](CCCNC(=N)N)NC(=O)[C@@H](NC(=O)[C@H](CC(C)C)NC(=O)[C@H](CCCCN)NC(=O)[C@H](CCCNC(=N)N)NC(=O)[C@@H](NC(=O)[C@H](CC(C)C)NC(=O)[C@@H](N)CCCCN)[C@@H](C)CC)[C@@H](C)CC)[C@@H](C)CC)C(C)C)C(C)C)[C@@H](C)O)[C@@H](C)CC)C(=O)N[C@@H](C)C(=O)N[C@@H](Cc1c[nH]cn1)C(=O)N[C@@H](C)C(=O)N[C@@H](CCCCN)C(=O)N[C@@H](CO)C(=O)N[C@@H](CCC(N)=O)C(=O)N[C@@H](CC(C)C)C(=O)N[C@@H](Cc1c[nH]c2ccccc12)C(=O)O` [Peptide 7] (H-KLIRKLIRWLRRKIRALQRAVAGPGVTIGIAHAKSQLW-OH) was tested. Which MCIC [1] did it give?
Answer: Its MCIC is 40 µg/mL.

Question: What about the MCIC ([2]; A. flavus, Minimum Complete Inhibitory Concentration, achieving a score of 3 or greater) of the same compound?
Answer: The MCIC was >80 µg/mL.

Question: And the MCIC ([3]; F. moniliforme, Minimum Complete Inhibitory Concentration, achieving a score of 3 or greater)?
Answer: Its MCIC is 40 µg/mL.

Question: How did the MCIC [1, 4] turn out when `CC[C@H](C)[C@H](NC(=O)CNC(=O)[C@@H](NC(=O)[C@@H](NC(=O)[C@@H](NC(=O)CNC(=O)[C@@H]1CCCN1C(=O)CNC(=O)[C@H](C)NC(=O)[C@H](CC(C)C)NC(=O)[C@H](C)NC(=O)[C@H](CCCNC(=N)N)NC(=O)[C@@H](NC(=O)[C@H](CCCCN)NC(=O)[C@@H](NC(=O)[C@H](CCCCN)NC(=O)[C@H](CCCCN)NC(=O)[C@@H]1CCCN1C(=O)[C@@H](NC(=O)[C@H](Cc1c[nH]cn1)NC(=O)[C@H](CCCCN)NC(=O)[C@@H](NC(=O)[C@H](C)NC(=O)[C@H](CCCCN)NC(=O)[C@H](CCC(=O)O)NC(=O)[C@@H](NC(=O)[C@H](CCCCN)NC(=O)[C@H](CCCCN)NC(=O)[C@@H](NC(=O)[C@H](C)NC(=O)[C@H](CCCNC(=N)N)NC(=O)[C@@H](N)CCC(N)=O)C(C)C)[C@@H](C)CC)[C@@H](C)CC)[C@@H](C)CC)[C@@H](C)CC)[C@@H](C)CC)C(C)C)[C@@H](C)O)[C@@H](C)CC)C(=O)N[C@@H](C)C(=O)N[C@@H](Cc1c[nH]cn1)C(=O)N[C@@H](C)C(=O)N[C@@H](CCCCN)C(=O)N[C@@H](CO)C(=O)N[C@@H](CCC(N)=O)C(=O)N[C@@H](CC(C)C)C(=O)N[C@@H](Cc1c[nH]c2ccccc12)C(=O)O` [Peptide 4] (H-QRAVKKIEKAIKHIPKKIKIRALAGPGVTIGIAHAKSQLW-OH) was run?
Answer: Its MCIC is 51 µg/mL.

Question: How did the MCIC [1, 4] turn out when `CC[C@H](C)[C@H](NC(=O)[C@H](C)NC(=O)[C@H](CCCCN)NC(=O)[C@H](CCC(=O)O)NC(=O)[C@@H](NC(=O)[C@H](CCCCN)NC(=O)[C@@H](N)CCCCN)[C@@H](C)CC)C(=O)N[C@@H](CCCCN)C(=O)N[C@@H](Cc1c[nH]cn1)C(=O)N[C@H](C(=O)N1CCC[C@H]1C(=O)N[C@@H](CCCCN)C(=O)N[C@@H](CCCCN)C(=O)N[C@H](C(=O)N[C@@H](CCCCN)C(=O)N[C@@H](CC(C)C)C(=O)N[C@@H](CCCCN)C(=O)N[C@@H](CCCCN)C(=O)N[C@@H](C)C(=O)N[C@@H](CC(C)C)C(=O)N[C@@H](CCCNC(=N)N)C(=O)N[C@@H](C)C(=O)N[C@@H](CC(C)C)C(=O)N[C@@H](C)C(=O)N[C@@H](CCCNC(=N)N)C(=O)N[C@@H](Cc1c[nH]cn1)C(=O)N[C@@H](Cc1c[nH]c2ccccc12)C(=O)N[C@@H](CCCCN)C(=O)O)[C@@H](C)CC)[C@@H](C)CC` [Peptide 10] (H-KKIEKAIKHIPKKIKLKKALRALARHWK-OH) was run?
Answer: The MCIC was 20 µg/mL.

Question: For `CC[C@H](C)[C@H](NC(=O)CNC(=O)[C@@H](NC(=O)[C@@H](NC(=O)[C@@H](NC(=O)CNC(=O)[C@@H]1CCCN1C(=O)CNC(=O)[C@H](C)NC(=O)[C@H](CCCCN)NC(=O)[C@@H](NC(=O)[C@H](CCCCN)NC(=O)[C@H](CCCCN)NC(=O)[C@@H]1CCCN1C(=O)[C@@H](NC(=O)[C@H](Cc1c[nH]cn1)NC(=O)[C@H](CCCCN)NC(=O)[C@@H](NC(=O)[C@H](C)NC(=O)[C@H](CCCCN)NC(=O)[C@H](CCC(=O)O)NC(=O)[C@@H](NC(=O)[C@H](CCCCN)NC(=O)[C@@H](N)CCCCN)[C@@H](C)CC)[C@@H](C)CC)[C@@H](C)CC)[C@@H](C)CC)C(C)C)[C@@H](C)O)[C@@H](C)CC)C(=O)N[C@@H](C)C(=O)N[C@@H](Cc1c[nH]cn1)C(=O)N[C@@H](C)C(=O)N[C@@H](CCCCN)C(=O)N[C@@H](CO)C(=O)N[C@@H](CCC(N)=O)C(=O)N[C@@H](CC(C)C)C(=O)N[C@@H](Cc1c[nH]c2ccccc12)C(=O)O` [Peptide 1] (H-KKIEKAIKHIPKKIKAGPGVTIGIAHAKSQLW-OH), which MCIC [1, 4] is on record?
Answer: The MCIC was >40 µg/mL.

Question: For `CC[C@H](C)[C@H](NC(=O)CNC(=O)[C@@H](NC(=O)[C@@H](NC(=O)[C@@H](NC(=O)CNC(=O)[C@@H]1CCCN1C(=O)CNC(=O)[C@H](C)NC(=O)[C@H](CCCCN)NC(=O)[C@H](Cc1c[nH]c2ccccc12)NC(=O)[C@H](Cc1c[nH]cn1)NC(=O)[C@H](CCCNC(=N)N)NC(=O)[C@H](C)NC(=O)[C@H](CC(C)C)NC(=O)[C@H](C)NC(=O)[C@H](CCCNC(=N)N)NC(=O)[C@H](CC(C)C)NC(=O)[C@H](C)NC(=O)[C@H](CCCCN)NC(=O)[C@H](CCCCN)NC(=O)[C@H](CC(C)C)NC(=O)[C@@H](N)CCCCN)C(C)C)[C@@H](C)O)[C@@H](C)CC)C(=O)N[C@@H](C)C(=O)N[C@@H](Cc1c[nH]cn1)C(=O)N[C@@H](C)C(=O)N[C@@H](CCCCN)C(=O)N[C@@H](CO)C(=O)N[C@@H](CCC(N)=O)C(=O)N[C@@H](CC(C)C)C(=O)N[C@@H](Cc1c[nH]c2ccccc12)C(=O)O` [Peptide 2] (H-KLKKALRALARHWKAGPGVTIGIAHAKSQLW-OH), which MCIC [1, 4] is on record?
Answer: The MCIC was 19 µg/mL.

Question: “IRALQRAVRHPRAIRRIYRGWKKAIRAGPGVTIGIAHAKSQLW [Peptide 6]” was tested. Which MCIC [1, 4] did it give?
Answer: Its MCIC is 20 µg/mL.

Question: With `CC[C@H](C)[C@H](NC(=O)CNC(=O)[C@@H](NC(=O)[C@@H](NC(=O)[C@@H](NC(=O)CNC(=O)[C@@H]1CCCN1C(=O)CNC(=O)[C@H](C)NC(=O)[C@H](CC(C)C)NC(=O)[C@H](C)NC(=O)[C@H](CCCNC(=N)N)NC(=O)[C@@H](NC(=O)[C@H](CCCNC(=N)N)NC(=O)[C@@H](NC(=O)[C@H](CCCNC(=N)N)NC(=O)[C@H](CCCNC(=N)N)NC(=O)[C@@H]1CCCN1C(=O)[C@@H](NC(=O)[C@H](Cc1c[nH]cn1)NC(=O)[C@H](CCCNC(=N)N)NC(=O)[C@@H](NC(=O)[C@H](C)NC(=O)[C@H](CCCNC(=N)N)NC(=O)[C@H](Cc1ccc(O)cc1)NC(=O)[C@@H](NC(=O)[C@H](CCCNC(=N)N)NC(=O)[C@H](CCCNC(=N)N)NC(=O)[C@@H](NC(=O)[C@H](C)NC(=O)[C@H](CCCNC(=N)N)NC(=O)[C@@H](N)CCC(N)=O)C(C)C)[C@@H](C)CC)[C@@H](C)CC)[C@@H](C)CC)[C@@H](C)CC)[C@@H](C)CC)C(C)C)[C@@H](C)O)[C@@H](C)CC)C(=O)N[C@@H](C)C(=O)N[C@@H](Cc1c[nH]cn1)C(=O)N[C@@H](C)C(=O)N[C@@H](CCCCN)C(=O)N[C@@H](CO)C(=O)N[C@@H](CCC(N)=O)C(=O)N[C@@H](CC(C)C)C(=O)N[C@@H](Cc1c[nH]c2ccccc12)C(=O)O` [Peptide 3] (H-QRAVRRIYRAIRHIPRRIRIRALAGPGVTIGIAHAKSQLW-OH) as the compound, how does the MCIC [1, 4] read?
Answer: The MCIC was 26 µg/mL.

Question: What about the MCIC [3] of the same compound?
Answer: Its MCIC is 26 µg/mL.
